This passage reports binding results from PMC10307871.

The chains behind the UniProt entries cited, without tags or fusion partners. Where a name states a change or a piece, a line headed by the entry shows the natural chain unless it says otherwise.
UniProt Q9H4L4: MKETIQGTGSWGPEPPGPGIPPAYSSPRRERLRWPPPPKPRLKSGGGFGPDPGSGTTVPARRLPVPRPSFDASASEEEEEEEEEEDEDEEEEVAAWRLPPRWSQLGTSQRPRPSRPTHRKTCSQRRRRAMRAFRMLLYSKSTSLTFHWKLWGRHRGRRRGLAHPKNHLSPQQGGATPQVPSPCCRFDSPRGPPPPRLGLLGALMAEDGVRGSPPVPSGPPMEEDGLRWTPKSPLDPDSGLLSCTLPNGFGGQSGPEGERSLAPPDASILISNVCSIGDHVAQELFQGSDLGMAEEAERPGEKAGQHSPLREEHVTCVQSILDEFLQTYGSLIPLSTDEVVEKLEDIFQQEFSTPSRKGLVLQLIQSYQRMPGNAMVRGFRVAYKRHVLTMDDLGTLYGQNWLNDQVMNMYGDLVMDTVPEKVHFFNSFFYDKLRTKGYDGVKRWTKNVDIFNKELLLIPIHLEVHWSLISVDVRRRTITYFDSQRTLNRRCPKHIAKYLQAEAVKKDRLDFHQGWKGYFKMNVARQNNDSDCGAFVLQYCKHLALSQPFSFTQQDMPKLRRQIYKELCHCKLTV
UniProt P63279: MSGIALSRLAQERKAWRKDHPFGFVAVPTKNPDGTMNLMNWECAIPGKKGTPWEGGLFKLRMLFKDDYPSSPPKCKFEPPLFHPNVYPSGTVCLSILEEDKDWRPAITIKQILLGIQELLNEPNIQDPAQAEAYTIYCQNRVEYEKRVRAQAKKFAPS

Results are given in words; binding and its absence hold for the method and conditions named. In cells and extracts the contact can be indirect. Some results given as binding are weak or reduced against the parent protein; the word gives no strength. For some of these results: Sequences can lack the tags named with a protein.

Experiment [1] concerns the target T1, Flag-DKC1 (human (cDNA of PDAC cells)) (UniProt O60832).
T1 sequence: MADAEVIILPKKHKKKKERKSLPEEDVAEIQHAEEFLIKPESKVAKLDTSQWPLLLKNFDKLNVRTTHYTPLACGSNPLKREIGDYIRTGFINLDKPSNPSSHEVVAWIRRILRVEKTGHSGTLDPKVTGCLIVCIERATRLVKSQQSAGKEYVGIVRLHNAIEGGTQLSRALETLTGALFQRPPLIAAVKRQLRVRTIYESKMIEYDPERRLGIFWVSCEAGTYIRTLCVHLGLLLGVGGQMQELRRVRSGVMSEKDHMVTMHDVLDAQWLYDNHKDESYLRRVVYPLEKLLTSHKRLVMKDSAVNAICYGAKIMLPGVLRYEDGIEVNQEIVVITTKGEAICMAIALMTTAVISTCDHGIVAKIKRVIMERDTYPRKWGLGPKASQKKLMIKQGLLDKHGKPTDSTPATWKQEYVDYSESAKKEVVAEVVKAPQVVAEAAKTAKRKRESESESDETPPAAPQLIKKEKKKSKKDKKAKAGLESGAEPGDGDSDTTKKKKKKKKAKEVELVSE
The experiment in a line: co-IP; HEK293T cells co-transfected with Flag- and Myc-tagged constructs; IP lysis buffer (25 mM Tris-HCl pH 7.4, 150 mM NaCl, 1% NP-40, 1 mM EDTA, 5% glycerol); anti-Flag gels overnight at 4 °C; immunoblot for Myc.

For experiment [2], the target named is T2, Flag-GFP-DKC1-M (human (cDNA of PDAC cells)) (UniProt O60832).
T2 sequence: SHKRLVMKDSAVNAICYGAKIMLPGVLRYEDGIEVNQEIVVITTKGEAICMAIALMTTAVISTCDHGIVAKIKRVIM
The description is as above.

Experiment [3] addresses T3, dyskerin pseudouridine synthase (DKC1), endogenous (human (endogenous in Patu-8988t)) (UniProt O60832).
T3 sequence: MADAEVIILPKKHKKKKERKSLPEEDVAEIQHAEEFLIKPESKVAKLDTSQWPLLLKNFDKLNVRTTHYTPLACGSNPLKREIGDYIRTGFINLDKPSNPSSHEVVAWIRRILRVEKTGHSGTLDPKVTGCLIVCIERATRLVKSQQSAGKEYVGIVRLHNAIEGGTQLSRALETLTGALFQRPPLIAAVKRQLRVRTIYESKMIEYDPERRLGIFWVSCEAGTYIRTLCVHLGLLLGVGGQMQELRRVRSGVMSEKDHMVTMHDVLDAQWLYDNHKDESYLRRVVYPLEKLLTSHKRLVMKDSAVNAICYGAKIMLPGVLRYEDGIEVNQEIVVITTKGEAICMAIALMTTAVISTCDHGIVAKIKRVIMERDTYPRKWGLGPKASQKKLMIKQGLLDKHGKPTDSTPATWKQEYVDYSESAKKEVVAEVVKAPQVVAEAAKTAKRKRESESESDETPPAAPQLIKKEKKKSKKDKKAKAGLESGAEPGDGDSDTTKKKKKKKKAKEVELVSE
The experiment in a line: co-IP; endogenous, reciprocal; Patu-8988t cell lysate incubated with antibodies against SENP3 or DKC1 overnight at 4 °C, then protein A/G agarose beads 2 h; immunoblot.

The target of experiment [4] is T4, DKC1 (construct of Fig. 5A, B; tag not told) (human (cDNA of PDAC cells)) (UniProt O60832).
T4 sequence: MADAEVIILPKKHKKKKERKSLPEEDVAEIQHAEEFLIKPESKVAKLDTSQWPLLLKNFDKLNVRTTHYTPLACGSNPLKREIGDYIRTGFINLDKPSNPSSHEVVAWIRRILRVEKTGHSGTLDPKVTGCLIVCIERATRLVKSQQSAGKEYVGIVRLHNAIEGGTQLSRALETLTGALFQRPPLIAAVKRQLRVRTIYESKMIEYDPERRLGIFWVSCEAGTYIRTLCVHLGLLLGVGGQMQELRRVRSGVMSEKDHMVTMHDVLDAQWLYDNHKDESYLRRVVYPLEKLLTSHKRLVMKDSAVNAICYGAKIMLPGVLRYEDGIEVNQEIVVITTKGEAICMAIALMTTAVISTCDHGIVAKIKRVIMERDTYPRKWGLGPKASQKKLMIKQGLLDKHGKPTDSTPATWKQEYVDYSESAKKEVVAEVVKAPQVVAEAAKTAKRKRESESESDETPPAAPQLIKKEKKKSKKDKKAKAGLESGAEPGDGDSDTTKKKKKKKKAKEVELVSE
The experiment in a line: co-IP; HEK293T cells transduced with expression vectors for DKC1 and UBC9; lysis and co-IP, immunoblot; tags and bait not told in the legend.

The target in experiment [5] is T1, Flag-DKC1 (human (cDNA of PDAC cells)). The experiment in a line: co-IP; HEK293T cells transfected for 24 h with SENP3 (wild type or C532S), Flag-DKC1 and HA-SUMO3; DKC1 recovered with anti-Flag gels; immunoblot.
The target is the same in experiment [6]. The experiment in a line: co-IP; HEK293T cells co-transfected with Flag- and Myc-tagged constructs; IP lysis buffer (25 mM Tris-HCl pH 7.4, 150 mM NaCl, 1% NP-40, 1 mM EDTA, 5% glycerol); anti-Flag gels overnight at 4 °C; immunoblot for Myc. This is another data set of the same source.
For experiment [7], the target named is T5, SUMOylation-resistant (3KR) DKC1, Flag-tagged (human (cDNA of PDAC cells)) (UniProt O60832).
T5 sequence: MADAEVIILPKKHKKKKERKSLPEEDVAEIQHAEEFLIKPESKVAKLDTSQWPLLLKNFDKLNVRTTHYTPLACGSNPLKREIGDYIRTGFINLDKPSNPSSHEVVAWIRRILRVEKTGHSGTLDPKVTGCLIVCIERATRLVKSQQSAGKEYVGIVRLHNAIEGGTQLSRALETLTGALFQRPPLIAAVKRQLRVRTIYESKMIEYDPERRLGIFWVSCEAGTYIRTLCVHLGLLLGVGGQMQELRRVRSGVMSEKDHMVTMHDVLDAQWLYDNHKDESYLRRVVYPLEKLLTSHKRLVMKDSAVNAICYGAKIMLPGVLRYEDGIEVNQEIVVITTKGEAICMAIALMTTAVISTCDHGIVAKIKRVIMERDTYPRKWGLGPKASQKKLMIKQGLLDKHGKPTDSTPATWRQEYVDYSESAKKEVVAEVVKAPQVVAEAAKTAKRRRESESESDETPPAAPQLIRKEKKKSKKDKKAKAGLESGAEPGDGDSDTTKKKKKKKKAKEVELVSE
The experiment is described as above.

Experiment [8] addresses T6, Flag-NHP2, wild type (human (cDNA of PDAC cells)) (UniProt Q9NX24).
T6 sequence: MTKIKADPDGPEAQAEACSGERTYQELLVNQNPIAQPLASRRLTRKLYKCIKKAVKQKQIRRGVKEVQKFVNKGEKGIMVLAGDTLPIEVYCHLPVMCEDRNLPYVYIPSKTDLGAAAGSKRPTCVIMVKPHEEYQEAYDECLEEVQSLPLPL
The experiment is described as above.

The target in experiment [9] is Flag-SENP3 (human (cDNA of PDAC cells)) (UniProt Q9H4L4). The experiment is described as above.
Experiment [10] concerns the target SUMO specific peptidase 3 (SENP3), endogenous (human (endogenous in Patu-8988t)) (UniProt Q9H4L4). The experiment in a line: co-IP; endogenous, reciprocal; Patu-8988t cell lysate incubated with antibodies against SENP3 or DKC1 overnight at 4 °C, then protein A/G agarose beads 2 h; immunoblot.

Take “Myc-SENP3 (from UniProt Q9H4L4 1-574) (enzyme)”: the binding result is recorded as “binds” in experiment [1] and “no binding” in experiment [2].
As for “SUMO specific peptidase 3 (SENP3), endogenous (from UniProt Q9H4L4 1-574) (enzyme)”, in experiment [3], the binding result is “binds”.
Consider “UBC9 (from UniProt P63279 1-158) (enzyme)”, for which, in [4], the binding entry is “binds”.
For “catalytically inactive SENP3 (C532S) (from UniProt Q9H4L4 1-574) (enzyme)”, the binding entry in experiment [5] is “binds”.

B1: MYC-tagged NHP2 (protein, UniProt Q9NX24 1-153)
chain: MTKIKADPDGPEAQAEACSGERTYQELLVNQNPIAQPLASRRLTRKLYKCIKKAVKQKQIRRGVKEVQKFVNKGEKGIMVLAGDTLPIEVYCHLPVMCEDRNLPYVYIPSKTDLGAAAGSKRPTCVIMVKPHEEYQEAYDECLEEVQSLPLPL
In the case of B1, the binding entry in [6] and in experiment [7] was “binds” throughout.

B2: Myc-DKC1 (protein, UniProt O60832 1-514)
chain: MADAEVIILPKKHKKKKERKSLPEEDVAEIQHAEEFLIKPESKVAKLDTSQWPLLLKNFDKLNVRTTHYTPLACGSNPLKREIGDYIRTGFINLDKPSNPSSHEVVAWIRRILRVEKTGHSGTLDPKVTGCLIVCIERATRLVKSQQSAGKEYVGIVRLHNAIEGGTQLSRALETLTGALFQRPPLIAAVKRQLRVRTIYESKMIEYDPERRLGIFWVSCEAGTYIRTLCVHLGLLLGVGGQMQELRRVRSGVMSEKDHMVTMHDVLDAQWLYDNHKDESYLRRVVYPLEKLLTSHKRLVMKDSAVNAICYGAKIMLPGVLRYEDGIEVNQEIVVITTKGEAICMAIALMTTAVISTCDHGIVAKIKRVIMERDTYPRKWGLGPKASQKKLMIKQGLLDKHGKPTDSTPATWKQEYVDYSESAKKEVVAEVVKAPQVVAEAAKTAKRKRESESESDETPPAAPQLIKKEKKKSKKDKKAKAGLESGAEPGDGDSDTTKKKKKKKKAKEVELVSE
For the molecule B2, the binding result in experiment [8] and in experiment [9] was “binds” throughout.

B3: dyskerin pseudouridine synthase (DKC1), endogenous (protein, UniProt O60832 1-514)
chain: MADAEVIILPKKHKKKKERKSLPEEDVAEIQHAEEFLIKPESKVAKLDTSQWPLLLKNFDKLNVRTTHYTPLACGSNPLKREIGDYIRTGFINLDKPSNPSSHEVVAWIRRILRVEKTGHSGTLDPKVTGCLIVCIERATRLVKSQQSAGKEYVGIVRLHNAIEGGTQLSRALETLTGALFQRPPLIAAVKRQLRVRTIYESKMIEYDPERRLGIFWVSCEAGTYIRTLCVHLGLLLGVGGQMQELRRVRSGVMSEKDHMVTMHDVLDAQWLYDNHKDESYLRRVVYPLEKLLTSHKRLVMKDSAVNAICYGAKIMLPGVLRYEDGIEVNQEIVVITTKGEAICMAIALMTTAVISTCDHGIVAKIKRVIMERDTYPRKWGLGPKASQKKLMIKQGLLDKHGKPTDSTPATWKQEYVDYSESAKKEVVAEVVKAPQVVAEAAKTAKRKRESESESDETPPAAPQLIKKEKKKSKKDKKAKAGLESGAEPGDGDSDTTKKKKKKKKAKEVELVSE
For B3, in experiment [10], the binding entry is reported as “binds”.
